# Hit rate of the full screen: of about 39,000 compounds, about 220 (0.56%) showed activity. The list shows a part of the results.
# Test system: Escherichia coli K-12 BW25113
# Experiment: relative growth (OD600 normalised to plate interquartile mean) (fraction); higher = less growth inhibition, active = 0.2 or less
# Details: 50 µM; LB; incubation time: overnight (16-24 h)
# 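Further: static incubation at 37 °C against the wild-type strain, values averaged over two biological replicates.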
row,Compound,relative growth
1,[N-]=[N+]=NCc1ccccc1C[C@]1(C(=O)NCCN2CCOCC2)COC(c2ccc(OCCCO)cc2)=N1,inactive: 0.888
2,COc1cccc(S(=O)(=O)Nc2ccc3c(c2)C(=O)N(C)C[C@H](OC)[C@H](C)CN(C(=O)Cc2cccnc2)[C@@H](C)CO3)c1,inactive: 1
3,Cc1ccc(S(=O)(=O)Nc2ccc3c(c2)C(=O)N([C@@H](C)CO)C[C@@H](C)[C@H](CN(C)S(=O)(=O)c2cccs2)O3)cc1,inactive: 1
4,Cc1noc(C)c1NC(=O)N(C)C[C@@H]1OCCCC[C@@H](C)Oc2ccc(NC(=O)Nc3ccc(F)cc3)cc2C(=O)N([C@H](C)CO)C[C@H]1C,inactive: 0.984
5,C[C@@H]1CN([C@@H](C)CO)C(=O)c2cc(C#CCN(C)C)cnc2O[C@@H]1CN(C)Cc1cccc(C(=O)O)c1,inactive: 0.973
6,C[C@H](CO)N1C[C@H](C)[C@H](CN(C)C(=O)Nc2ccc3c(c2)OCO3)Oc2ccc(NC(=O)c3ccncc3)cc2C1=O,inactive: 1.03
7,CC(C)NC(=O)Nc1ccc2c(c1)C(=O)N([C@@H](C)CO)C[C@H](C)[C@H](CN(C)Cc1ccc(C(F)(F)F)cc1)OCCCC[C@@H](C)O2,inactive: 0.963
8,CC(C)n1nccc1NC(=O)CN,inactive: 0.984
9,C[C@H]1CN([C@@H](C)CO)C(=O)Cc2cc(NC(=O)Cc3ccccc3)ccc2O[C@@H]1CN(C)C(=O)Nc1cccc2ccccc12,inactive: 1.01
10,C[C@H]1CCCCO[C@@H](CN(C)S(=O)(=O)c2cccs2)[C@@H](C)CN([C@@H](C)CO)C(=O)c2cc(NS(=O)(=O)c3ccc(Cl)cc3)ccc2O1,inactive: 1.02
11,COCC(=O)Nc1ccc2c(c1)OC[C@@H](C)N(C(=O)c1ccccc1F)C[C@@H](C)[C@H](OC)CN(C)C2=O,inactive: 0.982
12,C[C@H]1CN([C@@H](C)CO)C(=O)c2cccc(NC(=O)c3cnccn3)c2O[C@@H]1CN(C)C(=O)Nc1ccc(F)cc1,inactive: 0.988
13,CC1(C)[C@H]2CC[C@@]1(C)c1nn(-c3ccccc3)c(C(F)(F)F)c12,inactive: 1.01
14,Cc1noc(C)c1S(=O)(=O)N(C)C[C@H]1Oc2ccc(NS(=O)(=O)c3cccs3)cc2CC(=O)N([C@H](C)CO)C[C@@H]1C,inactive: 1.05
15,C[C@H](CO)N1C[C@H](C)[C@H](CN(C)C(=O)Cc2ccncc2)Oc2cc(C#CC3CCCC3)ccc2S1(=O)=O,inactive: 0.99
16,CO[C@@H]1CN(C)C(=O)c2cc(NC(C)=O)ccc2OC[C@H](C)N(S(=O)(=O)c2cn(C)cn2)C[C@H]1C,inactive: 1.01
17,CC(C)(C)[S@@](=O)N1Cc2cc(C(=O)NCCc3ccncc3)nc(-c3cccc(-c4ccccc4)c3)c2[C@H]1CCO,inactive: 1.02
18,COCC(=O)N1C[C@@H](C)[C@H](OC)CN(C)C(=O)c2ccc(NC(=O)c3ccc(OC)cc3)cc2OC[C@@H]1C,inactive: 0.997
19,C[C@@H]1CN([C@@H](C)CO)S(=O)(=O)c2ccc(Br)cc2O[C@H]1CN(C)C(=O)c1cccc(F)c1,inactive: 1.02

row,Compound,relative growth
1,Cc1noc(C)c1NC(=O)Nc1ccc2c(c1)C(=O)N([C@@H](C)CO)C[C@@H](C)[C@@H](CN(C)Cc1ccc(C(=O)Nc3ccccc3N)cc1)O2,inactive: 0.975
2,COc1ccc(S(=O)(=O)N(C)C[C@H]2OCCCC[C@H](C)Oc3ccc(NC(=O)C4CCCCC4)cc3C(=O)N([C@H](C)CO)C[C@@H]2C)cc1,inactive: 1.02
3,O[C@@H]1[C@@H](O)[C@H](Nc2ccccc2)OC[C@H]1O,inactive: 1.03
4,O=C(/C=C/c1ccc(O)c(O)c1)O[C@@H]1C[C@@](O)(C(=O)O)C[C@@H](O)[C@@H]1O,inactive: 1.05
5,COc1ccc(S(=O)(=O)N(C)C[C@@H]2OCCCC[C@H](C)Oc3ccc(NC(=O)Nc4ccc(F)cc4)cc3C(=O)N([C@@H](C)CO)C[C@@H]2C)cc1,inactive: 1.04
6,C[C@@H]1CCCCO[C@@H](CN(C)Cc2ccc(Cl)c(Cl)c2)[C@@H](C)CN([C@H](C)CO)C(=O)c2cc(NC(=O)c3ccccc3)ccc2O1,inactive: 1.01
7,C[C@H]1CN([C@@H](C)CO)C(=O)Cc2cc(NC(=O)Cn3cnnn3)ccc2O[C@@H]1CN(C)S(=O)(=O)c1ccc(Cl)cc1,inactive: 0.988
8,CN1CCN(C(=O)C[C@H]2CC[C@H]3[C@@H](COc4ccc(NC(=O)C5CCOCC5)cc4C(=O)N3C)O2)CC1,inactive: 0.995
9,C[C@H]1CN([C@@H](C)CO)C(=O)c2cc(NC(=O)Nc3ccc4c(c3)OCO4)ccc2O[C@H]1CN(C)Cc1ccc(C(=O)Nc2ccccc2N)cc1,inactive: 0.991
10,CC(=O)O[C@H]1C[C@@]2(C)[C@@H](C[C@@H](O)[C@@H]3[C@@]4(C)CC[C@@H](O)[C@@H](C)[C@@H]4CC[C@@]32C)/C1=C(/CCC=C(C)C)C(=O)O,inactive: 0.877
11,C[C@@H]1CN([C@H](C)CO)C(=O)c2cccc(NS(=O)(=O)c3cn(C)cn3)c2O[C@@H]1CN(C)C(=O)NC1CCCCC1,inactive: 0.987
12,C[C@@H]1CCCCO[C@@H](CN(C)Cc2ccc(C(=O)O)cc2)[C@@H](C)CN([C@@H](C)CO)C(=O)c2cc(NC(=O)Cc3ccccc3)ccc2O1,inactive: 1
13,COc1ccc(CN(C)C[C@H]2Oc3ccc(NC(=O)Cn4cnnn4)cc3CC(=O)N([C@@H](C)CO)C[C@@H]2C)cc1,inactive: 0.992
14,C[C@@H]1CN([C@@H](C)CO)S(=O)(=O)c2ccc(-c3ccc(C#N)cc3)cc2O[C@H]1CN(C)C(=O)CN(C)C,inactive: 0.982
15,Cc1cc(=O)n(CCO)c(=O)[nH]1,inactive: 1.04
16,C[C@@H]1CN([C@@H](C)CO)C(=O)c2cccc(NC(=O)Nc3cccc4ccccc34)c2O[C@H]1CN(C)S(=O)(=O)c1ccc(OC(F)(F)F)cc1,inactive: 0.791
17,COc1ccc(S(=O)(=O)N(C)C[C@@H]2Oc3c(NS(=O)(=O)c4ccc(F)cc4)cccc3C(=O)N([C@@H](C)CO)C[C@H]2C)cc1,inactive: 0.992
18,CCCNC(=O)C[C@@H]1CC[C@H]2[C@@H](COC[C@@H](O)CN2S(=O)(=O)c2ccc(Oc3ccccc3)cc2)O1,inactive: 0.983
19,C[C@@H]1CN([C@@H](C)CO)C(=O)c2cccc(NC(=O)c3ccncc3)c2O[C@@H]1CN(C)Cc1ccc(Oc2ccccc2)cc1,inactive: 1

row,Compound,relative growth
1,CNC[C@H]1OCCCC[C@@H](C)Oc2ccc(NS(=O)(=O)c3cn(C)cn3)cc2C(=O)N([C@@H](C)CO)C[C@@H]1C,inactive: 0.983
2,Cc1ccc(S(=O)(=O)Nc2ccc3c(c2)CC(=O)N([C@H](C)CO)C[C@H](C)[C@@H](CN(C)S(=O)(=O)c2c(C)noc2C)O3)cc1,inactive: 0.995
3,CN1C(=O)c2cc(NS(=O)(=O)c3cccc(F)c3)ccc2OC[C@@H]2O[C@@H](CC(=O)NCCN3CCCCC3)CC[C@@H]21,inactive: 0.986
4,C[C@@H]1CCCCO[C@H](CN(C)S(=O)(=O)c2ccc(F)cc2)[C@@H](C)CN([C@H](C)CO)C(=O)c2cc(NC(=O)NC3CCCCC3)ccc2O1,inactive: 1.02
5,C[C@@H]1CCCCO[C@H](CN(C)S(=O)(=O)c2ccc(F)cc2)[C@H](C)CN([C@H](C)CO)C(=O)c2cc(NC(=O)C3CCCCC3)ccc2O1,inactive: 1.03
6,NC(=O)[C@H]1CCCNC1,inactive: 0.916
7,C[C@@H]1CN([C@@H](C)CO)C(=O)c2cccc(NC(=O)CCCCCC(=O)Nc3ccccc3N)c2O[C@@H]1CN(C)CC1CCCCC1,inactive: 0.978
8,C[C@@H]1CN([C@@H](C)CO)C(=O)c2cccc(NS(=O)(=O)c3cn(C)cn3)c2O[C@@H]1CN(C)C(=O)Nc1ccccc1,inactive: 0.994
9,C[C@@H]1CN([C@H](C)CO)C(=O)Cc2cc(NS(C)(=O)=O)ccc2O[C@H]1CN(C)Cc1ccc(C(=O)O)cc1,inactive: 0.978
10,C[C@H](CO)N1C[C@H](C)[C@@H](CN(C)C(=O)CN(C)C)Oc2cc(C#C[C@@H](C)O)ccc2S1(=O)=O,inactive: 1.01
11,C[C@@H]1CN([C@@H](C)CO)C(=O)c2cccc(NC(=O)Nc3ccc(C(F)(F)F)cc3)c2O[C@@H]1CN(C)S(=O)(=O)c1ccc(F)cc1,inactive: 0.984
12,C[C@H]1CCCCO[C@@H](CN(C)C(=O)CCC(F)(F)F)[C@@H](C)CN([C@@H](C)CO)C(=O)c2cc(NS(=O)(=O)c3ccccc3)ccc2O1,inactive: 0.989
13,C[C@H](CO)N1C[C@H](C)[C@H](CN(C)C(=O)c2cc(Cl)cc(Cl)c2)OCc2ccccc2-c2ccccc2C1=O,inactive: 0.98
14,C[C@@H]1CN([C@@H](C)CO)C(=O)Cc2cc(NC(=O)NC3CCCCC3)ccc2O[C@H]1CN(C)C(=O)Nc1ccc(C(F)(F)F)cc1,inactive: 0.971
15,COc1ccc(S(=O)(=O)N(C)C[C@@H]2Oc3ccc(NS(=O)(=O)c4ccccc4)cc3C(=O)N([C@@H](C)CO)C[C@@H]2C)cc1,inactive: 1.01
16,C[C@@H]1CN([C@H](C)CO)C(=O)c2cc(NS(=O)(=O)c3ccc(Cl)cc3)ccc2O[C@@H](C)CCCCO[C@@H]1CN(C)C(=O)CCC(F)(F)F,inactive: 0.993
17,C[C@H](CO)N1C[C@H](C)[C@@H](CN(C)C(=O)Nc2ccccc2F)Oc2ncc(Br)cc2C1=O,inactive: 1.03
18,C[C@H](CO)N1C[C@H](C)[C@@H](CN(C)C(=O)CN2CCOCC2)Oc2ncc(C#CCN(C)C)cc2C1=O,inactive: 1.02
19,C[C@H](CO)N1C[C@H](C)[C@@H](CN(C)Cc2ccc(C(=O)Nc3ccccc3N)cc2)Oc2ccc(NC(=O)Nc3ccc4c(c3)OCO4)cc2CC1=O,inactive: 0.994
